Reference: PubChem BioAssay AID1508623 (National Center for Advancing Translational Sciences (NCATS), 2021)
About 450 (0.94%) of roughly 48,000 compounds were called active. Another 19% or so got no clear call; they are omitted. Calls come from the whole dose curve; as a rule, active = well fitted inhibition curve with a large enough effect; inconclusive = small, poorly fitted or top-dose-only effect; inactive = no such curve, though single readings can be large or run the other way. The list shows a part of the results.

test: Primary qHTS for Identification of Small Molecule Inhibitors of Huntingtin Promoter Activity; conditions: HEK293 HTT promoter firefly luciferase reporter (activity 0% = vehicle and -100% = no light), 24 h; series mostly up to 57.5 µM; activity change, negative = inhibition: at the top concentration; note: nearly all actives have a fitted effect of over 50% in size
Procedure, shortened: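 HEK293 cells carrying firefly luciferase reporters were seeded at 2,500 per well in Opti-MEM and cultured for 24 h. They were then treated with compounds at up to 57.5 uM final for 24 h at 37 degrees C before Dual-Glo luminescence readout.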

Activity change, negative = inhibition, inactive:
O=C(Nc1ccc(Br)cc1F)N1CCC2(CC1)Oc1ccccc1C(=O)N2Cc1ccccc1F 38.1%
COc1ccc(C2C(C(=O)Nc3ccc(C)cc3C)=C(C)Nc3nc4ccccc4n32)c(OC)c1 (stereo not given) -18.7%
COc1ccc2occ(CC(=O)Nc3ccc(S(=O)(=O)Nc4nc(C)cc(C)n4)cc3)c2c1 -11.2%
O=C1CSC2(C(=O)N(Cc3ccccc3)c3ccccc32)N1c1ccc(Cl)cc1 (stereo not given) -5.3%
CCC(C)NC(=O)C1=CC(c2ccc3c(c2)OCO3)=NS(=O)(=O)N1C (stereo not given) -13.8%
CC(C)(C)c1ccc(C(=O)N2CCCCC2CCN2CCCCC2)cc1 (stereo not given) -11%
O=C(CN1C(=O)COc2ccc(S(=O)(=O)Nc3ccccc3)cc21)Nc1cccc(Cl)c1 -21.6%
COc1cccc2c1Oc1ncccc1N(C(=O)CCC(=O)NCc1ccccc1Cl)C2 -10.5%
COC(=O)c1ccc(Cn2nnc3c(=O)[nH]c(C4CCCN(S(=O)(=O)c5cccc(Cl)c5)C4)nc32)cc1 (stereo not given) -25.5%
Cc1ccccc1CSc1ncc(CO)n1Cc1ccc(F)cc1 -7.83%
CCOc1ccc(-c2cc(-c3nc(-c4ccc(OC)c(OC)c4)no3)[nH]n2)cc1 -11.5%
COc1ccc(Cc2nc3ccccc3n2Cc2ccccc2F)cc1 -9.95%
CC(=O)c1ccc(NC(=O)CC(c2cccs2)N2Cc3ccccc3C2=O)cc1 (stereo not given) 14.9%
CCN(C(=O)Cn1cnc2sc(C)c(S(=O)(=O)N3CCN(c4ncccn4)CC3)c2c1=O)c1ccccc1F -14.1%
Cc1cc(Cl)ccc1OCC(=O)N(Cc1ccco1)Cc1ccco1 -5.46%
COc1ccc(-c2cn3cccnc3n2)cc1NC(=O)c1cc(C)cc(C)c1 4.29%
Cc1ccc(-n2ncc(C(=O)N3CCN(c4ccc(Cl)cc4)CC3)c2C2CCN(C(=O)OC(C)(C)C)CC2)c(C)c1 -10.9%
CC(O)CNc1nc2c(c(=O)n(Cc3ccc(Cl)cc3)c(=O)n2C)n1C (stereo not given) -26.9%
Cc1cc2c(cc1S(=O)(=O)CCC(=O)NCCc1ccccc1)OCC(=O)N2 -1.05%
CCC1CN(C(=O)Nc2ccc(C)c(F)c2)c2ccccc2S1 (stereo not given) 34.8%
CCOc1ccc(-c2nnc(SCC(=O)NCc3ccccc3)o2)cc1 -28.4%
CC(C)(C)C(=O)NC1(C(F)(F)F)C(=O)Nc2c1c(=O)[nH]c(=O)n2-c1ccccc1 (stereo not given) -13.6%
Cc1nnc(N2CCC(C(=O)NCCc3ccccc3)CC2)c2nn(-c3ccc(Cl)cc3)c(C)c12 -11.3%
CCOc1ccc(-n2nc3cc(C)c(NC(=O)c4cc(OCC)c(OCC)c(OCC)c4)cc3n2)cc1 -6.75% [at 11.5 µM]
CCN(CC)c1ccc(NC(=O)c2sc3nc4c(cc3c2N)CN(C)CC4)cc1 -10.7%
